Results are given in words; binding and its absence hold for the method and conditions named. In cells and extracts the contact can be indirect. Some results given as binding are weak or reduced against the parent protein; the word gives no strength.
Key:
[1] = molecular target: V5-tagged latency-associated nuclear antigen (LANA) (Kaposi's sarcoma-associated herpesvirus (KSHV)) (UniProt Q9QR71); test: co-IP; 293T cells expressing LANA-V5 and a 3xFLAG-tagged PRC factor; immunoprecipitation with V5 antibody, blots with V5 and FLAG antibodies; 0.5% NP40 lysis buffer (10mM Tris-HCl pH 8.0, 100mM NaCl, 1mM EDTA), 4°C
[2] = molecular target: EZH2, endogenous in iSLK cells (human (endogenous in iSLK)) (UniProt Q15910); test: co-IP; lysates of de novo KSHV infected iSLK cells (72 hpi); immunoprecipitation with anti-EZH2 rabbit antibody or normal rabbit IgG, blots with anti-LANA and anti-EZH2; 0.5% NP40 lysis buffer, 4°C

By UniProt entry, the sequences of proteins in these tests, tags left out.
UniProt Q9QR71: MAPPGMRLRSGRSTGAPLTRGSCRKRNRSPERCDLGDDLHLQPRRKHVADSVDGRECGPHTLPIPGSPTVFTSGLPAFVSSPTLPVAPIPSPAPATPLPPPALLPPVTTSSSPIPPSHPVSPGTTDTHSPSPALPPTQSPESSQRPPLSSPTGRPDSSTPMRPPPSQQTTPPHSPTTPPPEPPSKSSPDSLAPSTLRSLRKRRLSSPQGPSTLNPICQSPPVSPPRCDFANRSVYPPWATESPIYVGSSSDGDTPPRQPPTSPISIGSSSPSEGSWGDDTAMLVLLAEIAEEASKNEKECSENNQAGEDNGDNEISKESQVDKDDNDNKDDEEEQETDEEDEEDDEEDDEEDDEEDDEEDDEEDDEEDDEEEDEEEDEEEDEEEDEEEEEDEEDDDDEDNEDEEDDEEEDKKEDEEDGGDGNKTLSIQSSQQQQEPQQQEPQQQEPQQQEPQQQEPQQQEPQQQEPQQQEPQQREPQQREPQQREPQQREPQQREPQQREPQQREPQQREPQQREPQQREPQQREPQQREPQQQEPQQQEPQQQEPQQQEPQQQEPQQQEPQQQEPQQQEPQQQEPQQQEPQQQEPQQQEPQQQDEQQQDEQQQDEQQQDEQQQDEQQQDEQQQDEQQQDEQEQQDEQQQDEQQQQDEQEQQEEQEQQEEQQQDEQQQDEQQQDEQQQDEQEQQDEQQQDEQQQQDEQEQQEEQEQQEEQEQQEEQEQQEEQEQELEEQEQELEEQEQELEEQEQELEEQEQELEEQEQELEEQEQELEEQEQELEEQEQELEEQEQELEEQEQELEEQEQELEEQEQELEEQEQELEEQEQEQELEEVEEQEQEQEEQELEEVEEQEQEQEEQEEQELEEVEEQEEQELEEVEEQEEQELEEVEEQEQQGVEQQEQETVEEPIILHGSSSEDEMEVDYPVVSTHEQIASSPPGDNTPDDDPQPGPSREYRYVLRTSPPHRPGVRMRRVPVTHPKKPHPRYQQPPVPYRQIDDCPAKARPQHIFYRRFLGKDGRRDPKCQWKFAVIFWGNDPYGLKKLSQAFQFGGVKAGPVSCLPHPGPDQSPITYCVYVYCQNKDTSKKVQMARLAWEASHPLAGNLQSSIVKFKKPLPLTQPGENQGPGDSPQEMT
UniProt Q15910: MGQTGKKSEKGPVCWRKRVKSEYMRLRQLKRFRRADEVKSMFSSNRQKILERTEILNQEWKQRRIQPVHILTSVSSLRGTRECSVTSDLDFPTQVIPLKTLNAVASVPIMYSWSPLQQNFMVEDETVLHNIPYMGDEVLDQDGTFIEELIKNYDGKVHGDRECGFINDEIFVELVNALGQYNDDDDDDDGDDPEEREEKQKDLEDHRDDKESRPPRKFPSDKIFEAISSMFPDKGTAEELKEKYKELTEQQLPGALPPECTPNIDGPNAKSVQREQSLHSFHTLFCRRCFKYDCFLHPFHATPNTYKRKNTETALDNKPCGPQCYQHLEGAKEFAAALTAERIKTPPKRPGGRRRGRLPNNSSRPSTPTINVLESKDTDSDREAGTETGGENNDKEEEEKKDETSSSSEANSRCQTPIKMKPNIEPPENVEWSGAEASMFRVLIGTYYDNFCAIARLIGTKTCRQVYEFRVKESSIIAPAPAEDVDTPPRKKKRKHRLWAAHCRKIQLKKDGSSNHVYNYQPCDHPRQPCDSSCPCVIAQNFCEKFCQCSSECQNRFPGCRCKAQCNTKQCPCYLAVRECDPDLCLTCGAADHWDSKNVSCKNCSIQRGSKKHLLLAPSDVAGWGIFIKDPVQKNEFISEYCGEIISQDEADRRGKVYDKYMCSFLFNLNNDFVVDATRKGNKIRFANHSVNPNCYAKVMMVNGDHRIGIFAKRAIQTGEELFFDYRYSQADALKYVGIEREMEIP
UniProt P35226: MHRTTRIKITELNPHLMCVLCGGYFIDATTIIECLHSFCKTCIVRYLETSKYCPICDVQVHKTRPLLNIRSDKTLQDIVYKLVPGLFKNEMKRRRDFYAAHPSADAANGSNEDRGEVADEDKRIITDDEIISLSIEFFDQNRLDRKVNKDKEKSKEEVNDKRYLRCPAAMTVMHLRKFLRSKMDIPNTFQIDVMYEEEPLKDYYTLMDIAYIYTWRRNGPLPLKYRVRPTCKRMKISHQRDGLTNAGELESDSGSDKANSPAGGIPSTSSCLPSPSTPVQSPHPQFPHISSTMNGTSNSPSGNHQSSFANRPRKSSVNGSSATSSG
UniProt O75530: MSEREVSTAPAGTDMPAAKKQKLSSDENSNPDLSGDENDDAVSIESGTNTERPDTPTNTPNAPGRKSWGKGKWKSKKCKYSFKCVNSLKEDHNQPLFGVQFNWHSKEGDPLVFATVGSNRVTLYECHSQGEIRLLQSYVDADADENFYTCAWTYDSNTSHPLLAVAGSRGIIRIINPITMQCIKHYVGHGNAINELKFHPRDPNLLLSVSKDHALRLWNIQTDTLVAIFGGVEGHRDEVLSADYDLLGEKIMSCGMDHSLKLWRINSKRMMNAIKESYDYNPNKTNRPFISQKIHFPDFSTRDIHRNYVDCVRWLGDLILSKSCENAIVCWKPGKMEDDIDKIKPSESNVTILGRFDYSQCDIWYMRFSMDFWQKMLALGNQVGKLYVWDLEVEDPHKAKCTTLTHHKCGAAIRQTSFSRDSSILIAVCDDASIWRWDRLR
UniProt Q99496: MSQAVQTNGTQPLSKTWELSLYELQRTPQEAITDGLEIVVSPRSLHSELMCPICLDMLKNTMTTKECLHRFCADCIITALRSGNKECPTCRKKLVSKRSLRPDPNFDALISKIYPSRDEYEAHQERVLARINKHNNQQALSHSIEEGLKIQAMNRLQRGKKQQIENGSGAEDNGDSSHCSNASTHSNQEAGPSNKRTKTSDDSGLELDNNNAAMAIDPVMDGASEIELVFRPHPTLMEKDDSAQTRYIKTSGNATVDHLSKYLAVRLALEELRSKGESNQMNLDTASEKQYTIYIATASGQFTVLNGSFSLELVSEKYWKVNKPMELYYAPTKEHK
UniProt Q15022: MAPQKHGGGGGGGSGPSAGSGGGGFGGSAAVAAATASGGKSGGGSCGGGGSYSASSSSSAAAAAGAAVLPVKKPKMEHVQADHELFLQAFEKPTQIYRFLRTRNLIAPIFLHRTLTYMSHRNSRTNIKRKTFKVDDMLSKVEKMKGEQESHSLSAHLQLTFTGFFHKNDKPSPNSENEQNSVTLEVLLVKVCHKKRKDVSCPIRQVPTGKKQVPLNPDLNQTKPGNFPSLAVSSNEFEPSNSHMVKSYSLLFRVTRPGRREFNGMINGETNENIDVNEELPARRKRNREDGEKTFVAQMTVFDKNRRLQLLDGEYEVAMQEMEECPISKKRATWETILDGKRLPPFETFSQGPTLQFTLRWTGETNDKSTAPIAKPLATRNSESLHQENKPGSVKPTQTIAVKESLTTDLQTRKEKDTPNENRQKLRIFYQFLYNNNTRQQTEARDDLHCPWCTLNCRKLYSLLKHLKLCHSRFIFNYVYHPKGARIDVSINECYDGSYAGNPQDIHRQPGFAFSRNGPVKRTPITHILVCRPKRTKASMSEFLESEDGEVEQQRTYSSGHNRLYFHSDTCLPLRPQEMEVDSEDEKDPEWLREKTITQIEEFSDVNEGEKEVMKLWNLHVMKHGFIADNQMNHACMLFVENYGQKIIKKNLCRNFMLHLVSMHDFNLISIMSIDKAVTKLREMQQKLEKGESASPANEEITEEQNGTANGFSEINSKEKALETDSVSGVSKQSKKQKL

Row | Substance | binding [1] | binding [2]
1 | 3xFLAG-tagged BMI-1 (from UniProt P35226 1-326) | no binding | –
2 | 3xFLAG-tagged EED (from UniProt O75530 1-441) | binds | –
3 | 3xFLAG-tagged RING1B (from UniProt Q99496 1-336) | no binding | –
4 | 3xFLAG-tagged SUZ12 (from UniProt Q15022 1-739) | binds | –
5 | latency-associated nuclear antigen (LANA) expressed from the KSHV genome in infected iSLK cells (from UniProt Q9QR71 1-1129) | – | binds

From article PMC5015872
